Measured values from the supplement of paper PMC11876631.
± gives the standard deviation of the averaged measurements. Laboratory Escherichia coli strains with one amino-acid change in an essential protein, pooled on minimal glucose agar with carbenicillin or gentamicin at twice the control MIC (plus kanamycin and chloramphenicol for the plasmids), 48 h. Fold change of barcode share against drug-free plates; higher = less susceptible. Active = above 20 in both replicates (the paper's putatively resistant). '<' = one read or none on drug, '>' = one read or none on a drug-free plate. Shares are relative, so most strains fall below 1 when a few take over. Listed are strains with at least 15 reads on both drug-free plates, and hits; most hits rest on fewer reference reads. Replicate rank correlation about 0.5. Edits are read from barcodes.

B1: hemD L56W (protein)
chain: MSILVTRPSPAGEELVSRLRTLGQVAWHFPLIEFSPGQQLPQLADQLAALGESDLWFALSQHAVAFAQSQLHQQDRKWPRLPDYFAIGRTTALALHTVSGQKILYPQDREISEVLLQLPELQNIAGKRALILRGNGGRELIGDTLTARGAEVTFCECYQRCAIHYDGAEEAMRWQAREVTMVVVTSGEMLQQLWSLIPQWYREHWLLHCRLLVVSERLAKLARELGWQDIKVADNADNDALLRALQ
B2: argH M246Q (protein)
chain: MALWGGRFTQAADQRFKQFNDSLRFDYRLAEQDIVGSVAWSKALVTVGVLTAEEQAQLEEALNVLLEDVRARPQQILESDAEDIHSWVEGKLIDKVGQLGKKLHTGRSRNDQVATDLKLWCKDTVSELLTANRQLQSALVETAQNNQDAVMPGYTHLQRAQPVTFAHWCLAYVEMLARDESRLQDALKRLDVSPLGCGALAGTAYEIDREQLAGWLGFASATRNSLDSVSDRDHVLELLSAAAIGQVHLSRFAEDLIFFNTGEAGFVELSDRVTSGSSLMPQKKNPDALELIRGKCGRVQGALTGMMMTLKGLPLAYNKDMQEDKEGLFDALDTWLDCLHMAALVLDGIQVKRPRCQEAAQQGYANATELADYLVAKGVPFREAHHIVGEAVVEAIRQGKPLEDLPLSELQKFSQVIDEDVYPILSLQSCLDKRAAKGGVSPQQVAQAIAFAQARLG
B3: argH F259D (protein)
chain: MALWGGRFTQAADQRFKQFNDSLRFDYRLAEQDIVGSVAWSKALVTVGVLTAEEQAQLEEALNVLLEDVRARPQQILESDAEDIHSWVEGKLIDKVGQLGKKLHTGRSRNDQVATDLKLWCKDTVSELLTANRQLQSALVETAQNNQDAVMPGYTHLQRAQPVTFAHWCLAYVEMLARDESRLQDALKRLDVSPLGCGALAGTAYEIDREQLAGWLGFASATRNSLDSVSDRDHVLELLSAAAIGMVHLSRFAEDLIFDNTGEAGFVELSDRVTSGSSLMPQKKNPDALELIRGKCGRVQGALTGMMMTLKGLPLAYNKDMQEDKEGLFDALDTWLDCLHMAALVLDGIQVKRPRCQEAAQQGYANATELADYLVAKGVPFREAHHIVGEAVVEAIRQGKPLEDLPLSELQKFSQVIDEDVYPILSLQSCLDKRAAKGGVSPQQVAQAIAFAQARLG
B4: hemL V206W (protein)
chain: MSKSENLYSAARELIPGGVNSPVRAFTGVGGTPLFIEKADGAYLYDVDGKAYIDYVGSWGPMVLGHNHPAIRNAVIEAAERGLSFGAPTEMEVKMAQLVTELVPTMDMVRMVNSGTEATMSAIRLARGFTGRDKIIKFEGCYHGHADCLLVKAGSGALTLGQPNSPGVPADFAKYTLTCTYNDLASVRAAFEQYPQEIACIIVEPWAGNMNCVPPLPEFLPGLRALCDEFGALLIIDEVMTGFRVALAGAQDYYGVVPDLTCLGKIIGGGMPVGAFGGRRDVMDALAPTGPVYQAGTLSGNPIAMAAGFACLNEVAQPGVHETLDELTTRLAEGLLEAAEEAGIPLVVNHVGGMFGIFFTDAESVTCYQDVMACDVERFKRFFHMMLDEGVYLAPSAFEAGFMSVAHSMEDINNTIDAARRVFAKL
B5: hemL V99P (protein)
chain: MSKSENLYSAARELIPGGVNSPVRAFTGVGGTPLFIEKADGAYLYDVDGKAYIDYVGSWGPMVLGHNHPAIRNAVIEAAERGLSFGAPTEMEVKMAQLPTELVPTMDMVRMVNSGTEATMSAIRLARGFTGRDKIIKFEGCYHGHADCLLVKAGSGALTLGQPNSPGVPADFAKYTLTCTYNDLASVRAAFEQYPQEIACIIVEPVAGNMNCVPPLPEFLPGLRALCDEFGALLIIDEVMTGFRVALAGAQDYYGVVPDLTCLGKIIGGGMPVGAFGGRRDVMDALAPTGPVYQAGTLSGNPIAMAAGFACLNEVAQPGVHETLDELTTRLAEGLLEAAEEAGIPLVVNHVGGMFGIFFTDAESVTCYQDVMACDVERFKRFFHMMLDEGVYLAPSAFEAGFMSVAHSMEDINNTIDAARRVFAKL
B6: hemL V206P (protein)
chain: MSKSENLYSAARELIPGGVNSPVRAFTGVGGTPLFIEKADGAYLYDVDGKAYIDYVGSWGPMVLGHNHPAIRNAVIEAAERGLSFGAPTEMEVKMAQLVTELVPTMDMVRMVNSGTEATMSAIRLARGFTGRDKIIKFEGCYHGHADCLLVKAGSGALTLGQPNSPGVPADFAKYTLTCTYNDLASVRAAFEQYPQEIACIIVEPPAGNMNCVPPLPEFLPGLRALCDEFGALLIIDEVMTGFRVALAGAQDYYGVVPDLTCLGKIIGGGMPVGAFGGRRDVMDALAPTGPVYQAGTLSGNPIAMAAGFACLNEVAQPGVHETLDELTTRLAEGLLEAAEEAGIPLVVNHVGGMFGIFFTDAESVTCYQDVMACDVERFKRFFHMMLDEGVYLAPSAFEAGFMSVAHSMEDINNTIDAARRVFAKL
B7: hisI W112A (protein)
chain: MLTEQQRRELDWEKTDGLMPVIVQHAVSGEVLMLGYMNPEALDKTLESGKVTFFSRTKQRLWTKGETSGNFLNVVSIAPDCDNDTLLVLANPIGPTCHKGTSSCFGDTAHQALFLYQLEQLLAERKSADPETSYTAKLYASGTKRIAQKVGEEGVETALAATVHDRFELTNEASDLMYHLLVLLQDQGLDLTTVIENLRKRHQ
B8: argG L364Q (protein)
chain: MTTILKHLPVGQRIGIAFSGGLDTSAALLWMRQKGAVPYAYTANLGQPDEEDYDAIPRRAMEYGAENARLIDCRKQLVAEGIAAIQCGAFHNTTGGLTYFNTTPLGRAVTGTMLVAAMKEDGVNIWGDGSTYKGNDIERFYRYGLLTNAELQIYKPWLDTDFIDELGGRHEMSEFMIACGFDYKMSVEKAYSTDSNMLGATHEAKDLEYLNSSVKIVNPIMGVKFWDESVKIPAEEVTVRFEQGHPVALNGKTFSDDVEMMLEANRIGGRHGLGMSDQIENRIIEAKSRGIYEAPGMALLHIAYERLLTGIHNEDTIEQYHAHGRQLGRLLYQGRWFDSQALMLRDSLQRWVASQITGEVTLEQRRGNDYSILNTVSENLTYKPERLTMEKGDSVFSPDDRIGQLTMRNLDITDTREKLFGYAKTGLLSSSAASGVPQVENLENKGQ
B9: hisF V127A (protein)
chain: MLAKRIIPCLDVRDGQVVKGVQFRNHEIIGDIVPLAKRYAEEGADELVFYDITASSDGRVVDKSWVSRVAEVIDIPFCVAGGIKSLEDAAKILSFGADKISINSPALADPTLITRLADRFGVQCIVAGIDTWYDAETGKYHVNQYTGDESRTRVTQWETLDWVQEVQKRGAGEIVLNMMNQDGVRNGYDLEQLKKVREVCHVPLIASGGAGTMEHFLEAFRDADVDGALAASVFHKQIINIGELKAYLATQGVEIRIC
B10: hisF L176A (protein)
chain: MLAKRIIPCLDVRDGQVVKGVQFRNHEIIGDIVPLAKRYAEEGADELVFYDITASSDGRVVDKSWVSRVAEVIDIPFCVAGGIKSLEDAAKILSFGADKISINSPALADPTLITRLADRFGVQCIVVGIDTWYDAETGKYHVNQYTGDESRTRVTQWETLDWVQEVQKRGAGEIVANMMNQDGVRNGYDLEQLKKVREVCHVPLIASGGAGTMEHFLEAFRDADVDGALAASVFHKQIINIGELKAYLATQGVEIRIC
B11: hemG I53A (protein)
chain: MKTLILFSTRDGQTREIASYLASELKELGIQADVANVHRIEEPQWENYDRVVAGASIRYGHYHSAFQEFVKKHATRLNSMPSAFYSVNLVARKPEKRTPQTNSYARKFLMNSQWRPDRCAVIAGALRYPRYRWYDRFMIKLIMKMSGGETDTRKEVVYTDWEQVANFAREIAHLTDKPTLK
B12: hemG I53Q (protein)
chain: MKTLILFSTRDGQTREIASYLASELKELGIQADVANVHRIEEPQWENYDRVVQGASIRYGHYHSAFQEFVKKHATRLNSMPSAFYSVNLVARKPEKRTPQTNSYARKFLMNSQWRPDRCAVIAGALRYPRYRWYDRFMIKLIMKMSGGETDTRKEVVYTDWEQVANFAREIAHLTDKPTLK
B13: hemG I53W (protein)
chain: MKTLILFSTRDGQTREIASYLASELKELGIQADVANVHRIEEPQWENYDRVVWGASIRYGHYHSAFQEFVKKHATRLNSMPSAFYSVNLVARKPEKRTPQTNSYARKFLMNSQWRPDRCAVIAGALRYPRYRWYDRFMIKLIMKMSGGETDTRKEVVYTDWEQVANFAREIAHLTDKPTLK
B14: hisG I217W (protein)
chain: MTDNTRLRIAMQKSGRLSDDSRELLARCGIKINLHTQRLIAMAENMPIDILRVRDDDIPGLVMDGVVDLGIIGENVLEEELLNRRAQGEDPRYFTLRRLDFGGCRLSLATPVDEAWDGPLSLNGKRIATSYPHLLKRYLDQKGISFKSCLLNGSVEVAPRAGLADAICDLVSTGATLEANGLREVEVIYRSKACLIQRDGEMEESKQQLIDKLLTRWQGVIQARESKYIMMHAPTERLDEVIALLPGAERPTILPLAGDQQRVAMHMVSSETLFWETMEKLKALGASSILVLPIEKMME
B15: hisH I66A (protein)
chain: MNVVILDTGCANLNSVKSAIARHGYEPKVSRDPDVVLLADKLFLPGVGTAQAAMDQVRERELFDLAKACTQPVLGICLGMQLLGRRSEESNGVDLLGIIDEDVPKMTDFGLPLPHMGWNRVYPQAGNRLFQGIEDGAYFYFVHSYAMPVNPWTIAQCNYGEPFTAAVQKDNFYGVQFHPERSGAAGAKLLKNFLEM

Target: Escherichia coli (laboratory strain)
Test: barcode share on antibiotic plates over drug-free plates; higher = less susceptible
Details: antibiotic: gentamicin; 2× MIC (MIC 0.45 µg/mL)
Method: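 A pool of E. coli strains, each edited to carry one amino-acid change in an essential protein, was grown for 48 h on minimal glucose agar with or without antibiotic; strain barcodes were sequenced; mean of two replicates.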

| Protein | fold change of barcode share |
| --- | --- |
| B1 | < 0.0133 |
| B2 | < 0.0172 |
| B3 | < 0.0128 |
| B4 | > 6870 [active] |
| B5 | < 0.0164 |
| B6 | > 39.9 [active] |
| B7 | 0.0133 ± 0.005 |
| B8 | < 0.0163 |
| B9 | < 0.0172 |
| B10 | 0.0659 ± 0.038 |
| B11 | 0.014 ± 0.013 |
| B12 | 7.35 ± 2.4 |
| B13 | > 36.3 [active] |
| B14 | < 0.0195 |
| B15 | < 0.0163 |
